The campaign covered roughly 39,000 compounds. About 220 (0.56%) showed activity. Some of the results follow.
The compounds below were run on Escherichia coli K-12 BW25113 (assay: relative growth (OD600 normalised to plate interquartile mean) (fraction); higher = less growth inhibition, active = 0.2 or less). Conditions: 50 µM; LB; incubation time: overnight (16-24 h).
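Also: static incubation at 37 °C against the wild-type strain, values averaged over two biological replicates.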

Row | SMILES | relative growth
1 | O=C(N/N=C/[C@H](O)[C@H](O)[C@@H](O)[C@@H](O)CO)c1ccccn1 | inactive: 0.998
2 | CC(C)C[C@H](NC(=O)[C@H](CCCCN)NC(=O)[C@H](CCCNC(=N)N)NC(=O)[C@H](C)NC(=O)[C@H](CO)NC(=O)[C@H](CCCCN)NC(=O)[C@H](CCCNC(=N)N)NC(=O)[C@H](C)NC(=O)CNC(=O)[C@@H](NC(=O)[C@H](Cc1ccccc1)NC(=O)CNC(=O)CNC(=O)[C@@H](N)Cc1ccccc1)[C@@H](C)O)C(=O)N[C@@H](C)C(=O)N[C@@H](CC(N)=O)C(=O)N[C@@H](CCC(N)=O)C(=O)O | inactive: 0.991
3 | COC(=O)CCCCCCC(=O)N/N=C/[C@@H](O)[C@H](O)[C@H](O)CO | inactive: 0.954
4 | COc1cncc(O)c1 | inactive: 1.04
5 | Cc1ccc(S(=O)(=O)N(C)C[C@H]2Oc3c(NS(C)(=O)=O)cccc3C(=O)N([C@H](C)CO)C[C@@H]2C)cc1 | inactive: 0.993
6 | CC(C)(C)C(=O)Nc1c[nH]c(=O)[nH]c1=O | inactive: 0.961
7 | COC(=O)Cn1nc(N)c2ccccc21 | inactive: 0.988
8 | COc1ccc(CN(C)C[C@@H]2OCCCC[C@H](C)Oc3ccc(NC(=O)CCC(F)(F)F)cc3C(=O)N([C@H](C)CO)C[C@H]2C)cc1 | inactive: 0.943
9 | C[C@H]1CN([C@@H](C)CO)C(=O)c2cc(NC(=O)CCCCCC(=O)Nc3ccccc3N)ccc2O[C@H]1CN(C)Cc1ccc(-c2ccccc2)cc1 | inactive: 1.03
10 | C[C@H](CO)N1C[C@H](C)[C@H](CN(C)S(=O)(=O)c2cn(C)cn2)Oc2ccc(NC(=O)c3ccncc3)cc2C1=O | inactive: 0.97
11 | Cc1ncc(CO)c(CN)c1O | inactive: 1.01
12 | CC(C)=CCc1c2c(c3occ(-c4ccc(O)c(O)c4)c(=O)c3c1O)C=CC(C)(C)O2 | inactive: 1.01
13 | O=C(C[C@@H]1CC[C@@H]2[C@H](COC[C@@H](O)CN2C(=O)Nc2cccc(F)c2)O1)NCCCN1CCOCC1 | inactive: 0.955
14 | COc1ccc(CN2C[C@@H](C)[C@H](OC)CN(C)C(=O)c3ccc(NC(=O)c4nc5ccccc5s4)cc3OC[C@@H]2C)cc1 | inactive: 1.03
15 | C[C@H]1CN([C@@H](C)CO)C(=O)c2cc(NC(=O)CCC(F)(F)F)ccc2O[C@H]1CN(C)S(=O)(=O)c1cn(C)cn1 | inactive: 0.989
16 | COc1cc(NS(=O)(=O)c2ccc(N)cc2)ncn1 | inactive: 0.874
17 | C[C@@H]1CN([C@H](C)CO)C(=O)c2cc(C#Cc3cccc(F)c3)cnc2O[C@@H]1CN(C)C(=O)C1CCOCC1 | inactive: 1.02
18 | CC(=O)N[C@H]1[C@H](Oc2nc3cc(C)ccc3o2)O[C@H](CO)[C@@H](O)[C@@H]1O | inactive: 0.969
19 | N#Cc1nn(-c2ccccc2)c(=O)[nH]c1=O | inactive: 0.952
20 | Cc1noc(C)c1S(=O)(=O)N(C)C[C@@H]1Oc2ccc(NS(=O)(=O)c3ccccc3)cc2C(=O)N([C@@H](C)CO)C[C@@H]1C | inactive: 1.02

Row | SMILES | relative growth
21 | Cc1noc(C)c1NC(=O)N(C)C[C@H]1OCCCC[C@H](C)Oc2ccc(NC(=O)Nc3ccc(F)cc3)cc2C(=O)N([C@H](C)CO)C[C@@H]1C | inactive: 1
22 | CCS(=O)(=O)N1C[C@]2(CN(Cc3cc(ccc3F)F)C2)c2c(n(c3cc(ccc23)OC)C)[C@@H]1CO | inactive: 1
23 | C[C@H]1CCCCO[C@H](CN(C)C(=O)Nc2cccc3ccccc23)[C@@H](C)CN([C@@H](C)CO)C(=O)c2cc(NC(=O)c3ccccc3)ccc2O1 | inactive: 1.05
24 | COc1cccc(-c2cnc3c(c2)C(=O)N([C@H](C)CO)C[C@H](C)[C@H](CN(C)S(=O)(=O)c2cn(C)cn2)O3)c1 | inactive: 1.01
25 | C[C@@H]1CN([C@H](C)CO)C(=O)c2cc(NC(=O)CCCCCC(=O)Nc3ccccc3N)ccc2O[C@@H]1CN(C)Cc1ccc(C(F)(F)F)cc1 | inactive: 1
26 | Cc1ccc(S(=O)(=O)N(C)C[C@H]2Oc3ccc(NC(=O)Nc4cccc5ccccc45)cc3C(=O)N([C@H](C)CO)C[C@@H]2C)cc1 | inactive: 1.02
27 | Cc1cc(C)nc(NS(=O)(=O)c2ccc(N)cc2)n1 | inactive: 1.09
28 | COC(=O)c1ccc(O)c(/C=N/N(CCO)C2=NS(=O)(=O)c3ccccc32)c1 | inactive: 0.868
29 | C[C@H](CO)N1C[C@H](C)[C@@H](CN(C)Cc2ccc(C(F)(F)F)cc2)OCCCC[C@H](C)Oc2ccc(NC(=O)Cc3ccccc3)cc2C1=O | inactive: 0.991
30 | COc1ccc(S(=O)(=O)N(C)C[C@@H]2Oc3ccc(NC(=O)Nc4c(C)noc4C)cc3CC(=O)N([C@H](C)CO)C[C@H]2C)cc1 | inactive: 1
31 | CO[C@H]1CN(C)C(=O)c2ccc(NC(=O)CC(F)(F)F)cc2OC[C@H](C)N(S(=O)(=O)c2cn(C)cn2)C[C@H]1C | inactive: 0.985
32 | CN(C(=O)CN(CCO)CC(=O)N(C)C(C)(C)Cc1ccccc1)C(C)(C)Cc1ccccc1 | inactive: 0.878
33 | Cc1noc(C)c1NC(=O)Nc1cccc2c1O[C@@H](CN(C)Cc1ccc(C(=O)Nc3ccccc3N)cc1)[C@H](C)CN([C@@H](C)CO)C2=O | inactive: 1.02
34 | COc1ccccc1C#Cc1ccc2c(c1)O[C@H](CN(C)C(C)=O)[C@@H](C)CN([C@@H](C)CO)S2(=O)=O | inactive: 0.984
35 | C[C@@H]1CN([C@@H](C)CO)C(=O)c2cc(NC(=O)Cn3cnnn3)ccc2O[C@H]1CN(C)Cc1ccc(Oc2ccccc2)cc1 | inactive: 0.993
36 | O=C(Cn1ccc([N+](=O)[O-])n1)N1CCOCC1 | inactive: 0.961
37 | C[C@@H]1CN([C@@H](C)CO)C(=O)c2cc(NS(=O)(=O)c3ccc(F)cc3)ccc2O[C@H]1CN(C)CC1CC1 | inactive: 0.994
38 | COc1ccc(NC(=O)Nc2ccc3c(c2)CC(=O)N([C@H](C)CO)C[C@H](C)[C@@H](CN(C)S(=O)(=O)c2c(C)noc2C)O3)cc1 | inactive: 1.02
39 | COc1ccc(NC(=O)Nc2ccc3c(c2)C(=O)N([C@H](C)CO)C[C@@H](C)[C@H](CN(C)S(C)(=O)=O)O3)cc1 | inactive: 1.02
40 | Cc1ccc(S(=O)(=O)Nc2ccc3c(c2)CC(=O)N([C@@H](C)CO)C[C@@H](C)[C@H](CN(C)C(=O)Nc2cccc4ccccc24)O3)cc1 | inactive: 0.992

Row | SMILES | relative growth
41 | Cc1ccc(S(=O)(=O)N2C[C@H](O)COC[C@H]3O[C@H](CC(=O)NCc4ccc(Cl)c(Cl)c4)CC[C@@H]32)cc1 | inactive: 0.985
42 | C[C@H](CO)N1C[C@H](C)[C@H](CN(C)CC2CCCCC2)OCCCC[C@H](C)Oc2ccc(NC(=O)CCC(F)(F)F)cc2C1=O | inactive: 0.963
43 | COc1ccccc1S(=O)(=O)N[C@@H]1C=C[C@@H](CC(=O)N2CCOCC2)O[C@H]1CO | inactive: 0.987
44 | Cc1cc(C(=O)Nc2cccc3c2O[C@@H](CN(C)S(=O)(=O)c2ccc(F)cc2)[C@@H](C)CN([C@H](C)CO)C3=O)n(C)n1 | inactive: 0.979
45 | Cc1noc(C)c1NC(=O)Nc1ccc2c(c1)CC(=O)N([C@@H](C)CO)C[C@@H](C)[C@@H](CN(C)Cc1ccc(C(F)(F)F)cc1)O2 | inactive: 0.993
46 | CCCN1C[C@@H](C)[C@@H](OC)CN(C)C(=O)c2ccc(NS(=O)(=O)c3cn(C)cn3)cc2OC[C@H]1C | inactive: 1.01
47 | C[C@H]1CN([C@@H](C)CO)C(=O)c2cccc(NC(=O)Nc3ccc(F)cc3)c2O[C@@H]1CN(C)Cc1ccc(-c2ccccc2)cc1 | inactive: 0.969
48 | C[C@H](CO)N1C[C@H](C)[C@H](CN(C)CC2CCCCC2)Oc2ccc(NS(=O)(=O)c3cn(C)cn3)cc2C1=O | inactive: 1.01
49 | COc1ccc(S(=O)(=O)Nc2ccc3c(c2)C(=O)N([C@H](C)CO)C[C@H](C)[C@H](CN(C)C(=O)Nc2c(C)noc2C)OCCCC[C@H](C)O3)cc1 | inactive: 1.01
50 | C[C@H](CO)N1C[C@H](C)[C@@H](CN(C)C(=O)CN(C)C)Oc2cc(C#Cc3ccccc3)ccc2S1(=O)=O | inactive: 0.985
51 | COc1ccc2c3c([nH]c2c1)[C@H](CO)N(Cc1ccncc1)C[C@]13CCN(CC1)Cc1ccc(cc1)-c1ccccn1 | inactive: 0.987
52 | CN(C)C(=O)C[C@@H]1CC[C@H](NC(=O)C2CC2)[C@@H](CO)O1 | inactive: 1.02
53 | NC(=O)c1ccc[n+]([C@@H]2O[C@H](COP(=O)(O)OP(=O)(O)OC[C@H]3O[C@@H](n4cnc5c(N)ncnc54)[C@H](O)[C@@H]3O)[C@@H](O)[C@H]2O)c1 | inactive: 1.02
54 | Cc1nn(CC(=O)NC(C)C)c(C)c1[N+](=O)[O-] | inactive: 0.993
55 | C[C@@H]1CN([C@H](C)CO)C(=O)c2cccc(N(C)C)c2O[C@@H]1CN(C)S(C)(=O)=O | inactive: 0.987
56 | Cc1noc(C)c1NC(=O)Nc1cccc2c1O[C@@H](CN(C)S(=O)(=O)c1cn(C)cn1)[C@H](C)CN([C@H](C)CO)C2=O | inactive: 0.932
57 | CC(=O)N1CCc2c(sc(NC(=O)CN3C(=O)CCC3=O)c2C(N)=O)C1 | inactive: 0.98
58 | CO[C@H]1CN(C)C(=O)c2cc(NS(C)(=O)=O)ccc2OC[C@H](C)N(C(=O)C2CCCCC2)C[C@H]1C | inactive: 0.958
59 | CNC[C@H]1OCCCC[C@H](C)Oc2ccc(NS(=O)(=O)c3cn(C)cn3)cc2C(=O)N([C@@H](C)CO)C[C@H]1C | inactive: 0.989
60 | COc1ccc(S(=O)(=O)Nc2ccc3c(c2)C(=O)N([C@@H](C)CO)C[C@@H](C)[C@@H](CN(C)C(=O)Nc2ccc(C(F)(F)F)cc2)OCCCC[C@H](C)O3)cc1 | inactive: 1.03

Source: the supplement of paper PMC9446081
